Assays:
[1] = test system: peritoneal OVCAR-3 tumours; assay: Albendazole treatment of OVCAR-3 peritoneal tumour bearing nude mice (ascites volume, VEGF ELISA); format: in vivo, nude female athymic Balb c nu/nu mice; conditions: intra-peritoneal, 150 mg/kg x3 weekly for 4 weeks, OVCAR-3 tumour bearing mice
[2] = test system: VEGF mRNA (VEGF121, VEGF165, VEGF189, VEGF206); assay: RT-PCR of VEGF mRNA isoforms in OVCAR-3 cells isolated from ascites fluid of treated mice; format: in vivo, nude mice; conditions: intra-peritoneal, 150 mg/kg x3 weekly for 4 weeks; cells from ascites fluid or peritoneal wash
Experimental: OVCAR-3 cells isolated from ascites fluid of nude mice bearing tumours (as described above) were examined for the expression of mRNA for various VEGF isoforms (VEGF121, VEGF165, VEGF189, VEGF206) by RT-PCR. Cells were separated through centrifugation (5 min at 1500 rpm) and total RNA was isolated from the remaining cell-pellet by using the High Pure RNA Isolation Kit (Roche Diagnostics Corporation) according to the manufacturer's protocol. The RNA concentration was measured in a spectrophotometer at the wavelength of 260 nm using a Quartz Spectrophotometer Cell (BioRad).
Primers for amplification of VEGF were constructed on the basis of the sequences presented in Pellizzaro et. al 2002; VEGF sense: 5′-CACATAGGAGAGATGAGCTTC-3′ (SEQ ID NO:1); VEGF antisense: 5′-CCG CCT CGG CTT GTC ACA T-3′ (SEQ ID NO:2). These primers amplify the following products: 100 bp for VEGF121, 230 bp for VEGF165, 300 bp for VEGF189 and 320 bp for VEGF206. […]
The RT-PCR products were visualized by electrophoresis (25 min at 120V) on 2% agarose gel in 1×TAE buffer containing ethidium bromide. To quantify the size of the products a 100 bp DNA ladder (Invitrogen) was run with the samples.

[3] = test system: retinal neovascularisation; assay: Murine model of proliferative retinopathy (ROP), retinal neovascularisation, blood vessel count; format: in vivo, C57BL/6 mice
Experimental: The ability of albendazole to serve as a potential inhibitor of age-related macular degeneration (AMD) was evaluated in a well-established murine model of retinal neovascularisation, ROP (retinopathy of prematurity), relevant to AMD.
Postnatal day 6 (P6) C57BL/6 mice were exposed to hyperoxic (75% oxygen) for 4 days in Quantum-Air Maxi-Sealed cages (Hereford, UK). P10 mice were returned to normoxia, anaesthetized (17 mg/kg ketamine and 2.5 mg/kg xylazine) and bolus intravitreal injections of volume 2 μl, containing 0.1, 1 or 10 μg albendazole in DMSO; DMSO alone or 1×PBS alone were administered using a 26 gauge beveled needle attached to a micro syringe (SGE International, Melbourne, Australia). Mice remained at room oxygen for a further 7 days then eyes were removed and fixed in 10% formalin/PBS. Serial cross sections (50 microns) were stained with haematoxylin and eosin. Blood vessels from each, group were counted under light microscopy (400×) and expressed as the mean±SEM.
Statistical analysis of the results shown graphically in FIG. 9 was performed using a 2-tailed Student's t-test with unequal variance (Table 1).

[4] = test system: VEGF secretion from SKOV-3 cells; assay: In vitro VEGF secretion by SKOV-3 cells (ELISA), with or without MMP-9 stimulation; conditions: 6 hours

## CCCSc1ccc2nc(NC(=O)OC)[nH]c2c1 [albendazole, methyl 5-propylthio-IH-benzimidazole-2-yl carbamate]
[1]
  VEGF levels (ascites fluid and plasma): dramatic reductions
  ascites volume: dramatic reductions
[2]
  expression of VEGF mRNA: significant reduction
[3]; intravitreal injection in DMSO v DMSO alone
  adverse or toxic reaction, retinal morphology (haematoxylin and eosin sections): no adverse or toxic reaction
[3]; single intravitreal injection
  lowest amount at which inhibition of retinal angiogenesis was observed: 1 µg
[3]; single intravitreal injection, 0.1, 1 or 10 μg in 2 μl, hyperoxia-exposed mice
  hyperoxia-induced retinal angiogenesis: significantly inhibited
[4]; SKOV-3 cells stimulated with MMP-9 (6 ng/ml), 1 μM
  reduction in VEGF concentration: 65%
[4]; SKOV-3 cells, 0.1 μM, MMP-9 6 ng/ml
  excess VEGF secretion induced by MMP-9 stimulation: blocked the excess VEGF secretion
[4]; SKOV-3 cells, 1.0 μM, absence of MMP-9
  reduction in VEGF concentration: 64%
[4]; SKOV-3 cells, 0.1, 0.25 and 1.0 μM
  VEGF secretion, dose dependence: dose-dependent reduction

Source: patent US8912225B2, “VEGF inhibition” (Pitney Pharmaceuticals Pty Limited, priority 2004, dated 2014)
